Several values for one entry are separate records, joined by “and”; a condition that tells them apart may be missing. Identical values can stand only once. In all, about 150,000 compounds went through this assay and about 6,500 (4.3%) were called active. Inconclusive results, whose numbers are uncertain, are shown with a selection of clear calls. Calls follow the shape of the dose curve; as a rule, active = well fitted inhibition curve with a large enough effect (not every such curve was filed as active); inconclusive = small, poorly fitted or top-dose-only effect, or another doubt; inactive = no such curve, though single readings can be large or run the other way. Potencies of inconclusive entries are doubtful fits and often do not repeat.
biological target: 15-hydroxyprostaglandin dehydrogenase [NAD(+)] (Homo sapiens) (UniProt P15428); assay: qHTS Assay for Inhibitors of HPGD (15-Hydroxyprostaglandin Dehydrogenase); details: purified HPGD, NADH fluorescence kinetic, PGE2 substrate; activity change, negative = inhibition: hits give low values
Procedure, shortened: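 NADH formation kinetics: reaction with 30 uM PGE2 and 1 mM NAD+ (final), 20 nM enzyme, Tris-HCl pH 8 with Tween 20, after 15 min compound preincubation at room temperature. Fluorescence change, last versus first of five reads.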
% is scaled to controls: 0 for no effect and ±100 for the full control effect; potency is read from the fitted curve at half-maximal effect; tags tell the direction and shape of the fitted curve.

Chain of UniProt P15428 (P15428 whole entry, looked up): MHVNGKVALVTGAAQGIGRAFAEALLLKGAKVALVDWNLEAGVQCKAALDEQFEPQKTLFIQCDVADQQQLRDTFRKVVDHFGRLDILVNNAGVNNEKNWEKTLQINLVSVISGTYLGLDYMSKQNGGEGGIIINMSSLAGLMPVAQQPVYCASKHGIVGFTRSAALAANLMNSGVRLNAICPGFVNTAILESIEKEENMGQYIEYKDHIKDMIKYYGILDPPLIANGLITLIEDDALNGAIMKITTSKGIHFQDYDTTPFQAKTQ

Potency, inconclusive:
CN(C(=O)c1ccno1)c1nnc(-c2ccccn2)s1 14.1 µM [inhibitor, partial curve]
CN(C)C(=O)COc1ccc2cc(-c3ccccc3)c(=O)oc2c1 25.1 µM [inhibitor, partial curve]
CCCCc1c(C)c(C#N)c2[nH]c3ccccc3n2c1=O 31.6 µM [inhibitor, partial curve]
N#Cc1nc(-c2cccs2)oc1NCCc1ccccc1 31.6 µM [inhibitor, partial curve]
COc1ccc(C2C(C#N)=C(C)NC3=C2C(=O)CC(C)(C)C3)cc1 (stereo unspecified) 3.55 µM [inhibitor, full curve]
O=C(CN1CCc2[nH]c3ccccc3c2C1)N1CCCCC1 28.2 µM [inhibitor, partial curve]
COc1ccc(-c2ccc(C#N)c(SCC(=O)OCc3ccccc3)n2)cc1OC 35.5 µM [inhibitor, partial curve]
N#Cc1cc(-c2ccccc2)cnc1Sc1ccc(Cl)cc1 31.6 µM [inhibitor, partial curve]
Clc1ccc2c(NCCNC3CCCCC3)ccnc2c1 3.55 µM [inhibitor, partial curve]
O=C1CCCC2=C1C(c1ccc(Cl)cc1)N1C(=O)CCSC1=N2 (stereo unspecified) 28.2 µM [inhibitor, single point]
COCCn1c(=O)c(-c2ccccc2)nc2cnc(Oc3ccccc3)nc21 35.5 µM [inhibitor, partial curve]
O=C(Cn1nnc(-c2ccccc2Cl)n1)N/N=C/c1ccc(-c2cccc(Cl)c2)o1 31.6 µM [inhibitor, partial curve]
COc1ccc(CCNc2cc(C)nc3c(-c4ccc(Cl)cc4)cnn23)cc1OC 31.6 µM [inhibitor, partial curve]
COc1ccc(-c2nc3c(c4nnc(SC(C)C(=O)Nc5ccccc5)n24)COC(C)(C)C3)cc1 (stereo unspecified) 35.5 µM [inhibitor, single point]
O=C1C=C(Nc2ccccc2O)c2ccccc2C1=O 39.8 µM [inhibitor, single point]
O=c1[nH]c2cc3c(cc2cc1CN(CCc1ccccc1)Cc1nnnn1C1CCCC1)OCCO3 31.6 µM [inhibitor, single point]
Cc1cccc2c1nc(-c1ccccc1)n1nnnc21 31.6 µM [inhibitor, partial curve]
C=CCn1c(SCC(=O)c2cc(C)n(Cc3cccs3)c2C)nnc1-c1ccncc1 39.8 µM [inhibitor, single point]
COc1ccc(-c2nc3c(n2O)CCC/C3=N\O)cc1 28.2 µM [inhibitor, partial curve]
CCS(=O)(=O)Nc1ccc(-c2ccc(NS(=O)(=O)CC)c(OC)c2)cc1OC 28.2 µM [inhibitor, partial curve]
COc1cc(C=O)ccc1OCCOCCOc1ccccc1Cl 17.8 µM [inhibitor, partial curve]
Cc1ccc(N2C(=O)C3C4C=CC(CNC(=S)Nc5ccc(Cl)cc5)(O4)C3C2=O)cc1 (stereo unspecified) 31.6 µM [inhibitor, single point]
CCOC(=O)c1sc(NC(=O)CSc2n[nH]c(CC(C)C)n2)nc1C 10 µM [inhibitor, partial curve]
Cc1cccc(Nc2nc(-c3ccccc3)c(C(=O)Nc3cccnc3)s2)c1 25.1 µM [inhibitor, partial curve]
Cc1cccc(C)c1NC(=O)Cn1nnc(-c2ccc(N3CCOCC3)cc2)n1 31.6 µM [inhibitor, single point]
Cc1cc(N2CCN(c3ccccc3Cl)CC2)n2cc(-c3ccccc3)nc2n1 31.6 µM [inhibitor, partial curve]
C=CCOc1ccc(/C=C/C(=O)Nc2ccc(C(=O)NC)cc2)cc1 17.8 µM [inhibitor, partial curve]
COC(=O)c1c(NC(=O)CN2CCN(c3ccccc3OC)CC2)c2cc(C)ccc2n1C 28.2 µM [inhibitor, partial curve]
CC1Cc2ccccc2N1C(=O)c1cc2c(=O)n3ccccc3nc2n1C (stereo unspecified) 25.1 µM [inhibitor, partial curve]
COc1ccc(COc2cc(-c3cccc(OC)c3)nc3ccc(NC(=O)c4cccnc4)cc23)cc1 25.1 µM [inhibitor, partial curve] and 35.5 µM [inhibitor, single point]
CC1=CC(c2ccc(Cl)cc2)n2nc(N3C(=O)CCC3=O)nc2N1 (stereo unspecified) 31.6 µM [inhibitor, partial curve]

Potency, active:
O=C1CC(SCc2nc3ccccc3[nH]2)C(=O)N1c1ccc(F)c(Cl)c1 (stereo unspecified) 22.4 µM
COC(=O)C1=C(N)OC2=C(C(=O)CC(C)(C)C2)C1c1cccs1 (stereo unspecified) 22.4 µM
N#Cc1c(NC(=S)NC(=O)c2ccccc2)sc2c1CCCC2 25.1 µM

Activity change, negative = inhibition, inactive:
CCN(CC)S(=O)(=O)c1ccc(NC(=O)CSc2ncnc3ccccc23)cc1 -12.9%
c1ccc(CCNc2nc(-c3cccnc3)cs2)cc1 -15.3%
O=C(CCN1C(=O)CSC1=O)Nc1ccc(Br)cc1 -10.2%
C=C/C1=C/Cc2ccccc2[C@H](C[N+](=O)[O-])C(C(=O)OC)(C(=O)OC)C1 -16.5%
CSc1nsc(/C=C/Nc2ccc(Cl)cc2)c1C#N -23.8%
CCCCCCOC(=O)C[N+](C)(C)CCOC1CC2CCC1(C)C2(C)C (stereo unspecified) -8.87%
CCOc1cc(CNc2ccc(N(C)C)cc2)cc(Br)c1OCC(=O)NC(C)(C)C -24%
